Measured values from publication PMC5897033.
No constants are given. Whether binding was seen depends on the method and setting. Sequences can lack the tags named with a protein.

Biological target: T1, human RAD51, yeast two-hybrid fusion (human), Q06609
T1 chain: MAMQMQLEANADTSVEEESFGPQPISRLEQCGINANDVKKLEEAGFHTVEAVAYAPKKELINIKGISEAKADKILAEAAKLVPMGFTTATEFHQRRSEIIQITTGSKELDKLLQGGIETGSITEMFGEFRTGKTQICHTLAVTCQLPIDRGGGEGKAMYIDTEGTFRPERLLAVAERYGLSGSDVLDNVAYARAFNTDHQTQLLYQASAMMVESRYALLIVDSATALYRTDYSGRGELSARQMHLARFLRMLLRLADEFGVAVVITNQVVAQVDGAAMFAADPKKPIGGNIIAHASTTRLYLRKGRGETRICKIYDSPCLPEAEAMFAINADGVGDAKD
Test: two-hybrid; Gal4 system (Clontech), pGBKT7 (BD) and pGADT7 (AD) fusions, yeast strains AH109 and Y187; growth on -LWH (weak) and -LWHA (strong)
Details: remark: other sources report otherwise

B1: human FLIP (C1ORF112), yeast two-hybrid fusion, Q9NSG2 1-853 (protein)
chain: MFLPHMNHLTLEQTFFSQVLPKTVKLFDDMMYELTSQARGLSSQNLEIQTTLRNILQTMVQLLGALTGCVQHICATQESIILENIQSLPSSVLHIIKSTFVHCKNSESVYSGCLHLVSDLLQALFKEAYSLQKQLMELLDMVCMDPLVDDNDDILNMVIVIHSLLDICSVISSMDHAFHANTWKFIIKQSLKHQSIIKSQLKHKDIITSLCEDILFSFHSCLQLAEQMTQSDAQDNADYRLFQKTLKLCRFFANSLLHYAKEFLPFLSDSCCTLHQLYLQIHSKFPPSLYATRISKAHQEEIAGAFLVTLDPLISQLLTFQPFMQVVLDSKLDLPCELQFPQCLLLVVVMDKLPSQPKEVQTLWCTDSQVSETTTRISLLKAVFYSFEQCSGELSLPVHLQGLKSKGKAEVAVTLYQHVCVHLCTFITSFHPSLFAELDAALLNAVLSANMITSLLAMDAWCFLARYGTAELCAHHVTIVAHLIKSCPGECYQLINLSILLKRLFFFMAPPHQLEFIQKFSPKEAENLPLWQHISFQALPPELREQTVHEVTTVGTAECRKWLSRSRTLGELESLNTVLSALLAVCNSAGEALDTGKQTAIIEVVSQLWAFLNIKQVADQPYVQQTFSLLLPLLGFFIQTLDPKLILQAVTLQTSLLKLELPDYVRLAMLDFVSSLGKLFIPEAIQDRILPNLSCMFALLLADRSWLLEQHTLEAFTQFAEGTNHEEIVPQCLSSEETKNKVVSFLEKTGFVDETEAAKVERVKQEKGIFWEPFANVTVEEAKRSSLQPYAKRARQEFPWEEEYRSALHTIAGALEATESLLQKGPAPAWLSMEMEALQERMDKLKRYIHTLG
- binding: no binding
